The test system of this data set is ATP. Nature of the data set: switch fluorescence ratio, 500 uM ATP over buffer (Cy3 cluster intensity, sum of 5 cycles each) (fold (ratio)); higher = stronger signal-on switching upon ATP binding; sequences stand for … in TCGTCGGCAGCGTCAGATGTGTATAAGAGACAGTTTTTTTTTTTTTTTTTTTTTTTTT…TC. The settings on record: aptamer strand: ATP DNA aptamer (quencher-CACCTGGGGGAGTATTGCGGAGGAAGG + anchor), 100 nM annealed; ATP concentration: 500 uM; one replicate. The method, boiled down: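 For every switch-domain sequence, the fluorescence ratio is the mean of per-cluster values, each being summed target-cycle Cy3 intensity over summed buffer-cycle Cy3 intensity. Clusters outside 100-1000 RFU were excluded. On a modified Illumina MiSeq flow-cell, the Cy3-labelled switching-strand clusters were annealed to 100 nM quencher-labelled ATP aptamer, imaged in selection buffer and then after 15 min with 500 uM ATP at 22 °C. Five such cycles were run, with NaOH stripping and re-annealing between them.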

Sequences with one replicate were seen in a single cluster, so their values are uncertain.
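Further: ATP exposure 15 min at 22 °C before imaging.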

As for CGATTCCAGT, the switch fluorescence ratio came out at 1.01.
As for CTTGGGCAAT, the switch fluorescence ratio worked out at 3.25.
Consider GCGCTCTTCA, for which the switch fluorescence ratio turned out to be 0.984.
As to ATCAACAGAT, the switch fluorescence ratio amounted to 1.05.
To ACTAATTCGG belongs 1.01; to GCCTAGGGGT, 4.11.
For CCGATGATTA, the switch fluorescence ratio came out at 1.19.
To CACCGGTTTT belongs 1.02.
For the sequence TAGTTATAT, the switch fluorescence ratio amounted to 0.999.
To TTTCGGCAGG belongs 1.02; to ATATGTAATT, 0.987.
In the case of AGGCTATAGG it was 1.02.
To CTGCGGTATG belongs 1.05; to CTGGGTGGCT, 1.02; to TGCTACGTGG, 1.01.
TGCCGTAGCA: the switch fluorescence ratio was 1.05.
Consider CGAGGATGGC, for which the switch fluorescence ratio came out at 1.01.
In the case of TCGTTGTTAA, the switch fluorescence ratio came to 1.03.
With AATCCTACTT, the switch fluorescence ratio is 1.
In the case of AGAATTACAG it was 0.979.
In the case of GGGAGTGAAG it was 1.01.
To GCGGTAGGGG belongs 1.01; to TTTCATAAAG, 1.02; to AGCCCGTCTG, 1.03.
For AAAGTTCACC, the switch fluorescence ratio came out at 1.01.
To GCGCAAATGC belongs 2.08.
Consider GTGCGGGAAG, for which the switch fluorescence ratio worked out at 0.994.
To GAGTGGGGCC belongs 1.01.
To GGGGATCATT belongs 0.988.
In the case of AGGCTCCTAG it was 0.974; in that of TTTTAATCTA, 1.05; in that of TCGTCAAACG, 0.943.
Take TTCATTGCG: the switch fluorescence ratio came out at 1.02.
As to CTTGTCCGGG, the switch fluorescence ratio came out at 0.986.
To AGGGTCCATA belongs 0.979; to CGATATTCAG, 1.03; to CAGTGTGACC, 0.937.
In the case of TTCGAATATC it was 1.11.
TAATATGACA: the switch fluorescence ratio is 1.03.
In the case of GTTTCTGGCG it was 1.01; in that of AAGCAGTTTA, 0.981.
Take CCCGCCCGGT: the switch fluorescence ratio was found to be 1.15.
As for TACGGGTCTC, the switch fluorescence ratio stood at 0.993.
Turning to GGTGCAACGG, the switch fluorescence ratio worked out at 0.988.
For the sequence GTAATGGCAA, the switch fluorescence ratio worked out at 1.07.
Take TTGTTAGCTT: the switch fluorescence ratio stood at 1.03.
To TCAATACTGA belongs 1.19.
On to AAAGCGTCAT, for which the switch fluorescence ratio worked out at 0.955.
To AGCCCGTAGT belongs 1.03.
As for AATGAAAACG, the switch fluorescence ratio was 0.903.
TCTAGTTGCC: the switch fluorescence ratio worked out at 0.97.
In the case of ATAAGTTTG it was 0.962.
To GATTAATAGA belongs 1.01; to CCGACTCCAG, 1.16; to TTTGTATCT, 0.986.
To TGCAACAATT belongs 0.982; to CCGCCGACGG, 1.35; to GGGAACCTGG, 0.982.
For TATTTCTATG, the switch fluorescence ratio was determined as 1.02.
For the sequence CGTCCTCGGT, the switch fluorescence ratio is 1.
In the case of ATATAAACGT, the switch fluorescence ratio was 1.06.
As to CTTTCGATGG, the switch fluorescence ratio came to 1.
To TGGTGAAGC belongs 1.04; to AGATGCAACC, 1.09; to TTAGCGGGTA, 1.03.
To TCACTGGATC belongs 1.1.
To ACGTAGCCGC belongs 1.18; to TAAATGGCCT, 1; to CTGGTAAGAG, 0.997.
Take AGGTATGGCA: the switch fluorescence ratio came to 1.07.
Consider CTTAATTGCC, for which the switch fluorescence ratio was 0.975.
In the case of AAGAAAAACT it was 1.43; in that of CACGAGACGG, 1.16; in that of TTGCCGGGTA, 1.01.
In the case of AATTAAAACA it was 0.994; in that of CTGGGGTGG, 0.94.
Take CTTTGTGTTA: the switch fluorescence ratio came out at 0.999.
For the sequence AGATTCAATT, the switch fluorescence ratio stood at 0.986.
To GCCCCATCAA belongs 1.04.
Regarding GTTCGGGGAT, the switch fluorescence ratio came out at 1.04.
To TCTAGTCCAG belongs 0.981; to TATTGTTG, 0.97; to ATGGGGGTG, 1.1.
Take GCAGTAGAGA: the switch fluorescence ratio is 0.992.
In the case of ATGTGCATCG it was 0.973; in that of CAGCCATTCC, 1.75; in that of TGGGCGGAGG, 0.962.
CTATGTAAGT: the switch fluorescence ratio was determined as 1.03.
To ACACAGTTGG belongs 0.949; to GGGCGATTAC, 1.74.
In the case of AATAAACTGA it was 1.03.
In the case of TGCCCATTTT it was 1.
For the sequence CAGCTTACGT, the switch fluorescence ratio was 1.05.
In the case of AATCGGAACG it was 1.01; in that of TGTTGCTTGT, 0.998; in that of GATGGTACGA, 1.02.
Take TGAAAGGGTT: the switch fluorescence ratio is 0.962.
Regarding TTTGACGCAC, the switch fluorescence ratio amounted to 1.81.
To CGCTGCGACT belongs 1.05; to GACGCCTACA, 1.44; to ATTTGGAGAG, 0.961.
In the case of TAACCTGAGG it was 1.07; in that of CCTTGATCCT, 1.07; in that of GCGAGGTTTT, 0.971.
For the sequence ATGTTCGGGT, the switch fluorescence ratio came out at 1.03.
As for CCTACTTAAT, the switch fluorescence ratio came to 0.986.
In the case of TATCTCTTGA it was 1.01; in that of GGGTCATTTC, 1.05.
ATGCTAAGCG: the switch fluorescence ratio came out at 1.
In the case of TAAATCCGCA it was 1.61; in that of GCAGATAT, 1.03.
To GTGTATGACC belongs 0.994.
In the case of CTTGTAAAGT it was 1.05; in that of AAGATATTC, 1.
As for TGGAGAAAAA, the switch fluorescence ratio was found to be 1.1.
With AACGATCTTA, the switch fluorescence ratio was 0.99.
To CACTTTGGCA belongs 0.987; to TGATTAAAAG, 0.948; to CTCGTACCAG, 0.983.
In the case of CCAGAATGTT, the switch fluorescence ratio is 0.961.

Values taken from the supplement of paper PMC10126150.
